This is an account of results in publication PMC9260856.

These are yes or no findings as the source states them, for the method shown. Binding seen in cells or lysates may run through a third protein. Some results given as binding are weak or reduced against the parent protein; the word gives no strength. Tags and fused reporters may be left off the sequences shown.

The target of assay [1] is T1, HA-tagged full-length (FL) ZXDA, transfected in HEK293T cells (human) (UniProt P98168).
T1 sequence: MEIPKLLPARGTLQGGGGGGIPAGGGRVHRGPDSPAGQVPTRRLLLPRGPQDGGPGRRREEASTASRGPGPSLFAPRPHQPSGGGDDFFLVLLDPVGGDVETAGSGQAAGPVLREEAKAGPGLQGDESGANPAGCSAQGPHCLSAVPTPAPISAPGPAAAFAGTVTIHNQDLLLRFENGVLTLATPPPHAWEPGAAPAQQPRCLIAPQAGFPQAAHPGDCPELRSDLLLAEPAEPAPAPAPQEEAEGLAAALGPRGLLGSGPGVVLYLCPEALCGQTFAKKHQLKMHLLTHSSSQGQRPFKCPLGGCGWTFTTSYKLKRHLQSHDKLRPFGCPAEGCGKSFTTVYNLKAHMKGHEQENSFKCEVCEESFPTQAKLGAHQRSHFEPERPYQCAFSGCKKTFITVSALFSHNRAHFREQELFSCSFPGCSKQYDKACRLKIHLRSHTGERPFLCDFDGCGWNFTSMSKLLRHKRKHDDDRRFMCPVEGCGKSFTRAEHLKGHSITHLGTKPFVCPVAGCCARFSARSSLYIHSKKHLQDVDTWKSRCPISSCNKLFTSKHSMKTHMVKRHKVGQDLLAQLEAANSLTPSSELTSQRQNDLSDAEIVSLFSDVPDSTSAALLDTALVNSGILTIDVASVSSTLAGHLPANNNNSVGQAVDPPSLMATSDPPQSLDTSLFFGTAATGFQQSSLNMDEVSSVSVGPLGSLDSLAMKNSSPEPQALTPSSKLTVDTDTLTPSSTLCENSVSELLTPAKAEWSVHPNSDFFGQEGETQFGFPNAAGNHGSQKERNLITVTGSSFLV
In words: co-IP; HA-tagged ZXDA immunoprecipitated with anti-HA beads from whole-cell lysates of transfected HEK293T cells treated with MLN4924 for 6 h; immunoblot. A general note: In western blotting, separated proteins are transferred to a membrane and probed.

Assay [2] deals with T2, StrepII-FLAG-tagged ZXDA (SF-ZXDA), transfected in HEK293T cells (human) (UniProt P98168).
T2 sequence: T1 sequence
In words: co-IP; SF-tagged bait affinity-purified on Strep-Tactin Sepharose from whole-cell lysates of transfected HEK293T cells (150 mM NaCl, 50 mM Tris pH 7.5, 0.4% Triton X-100, Benzonase), desthiobiotin elution, immunoblot; MLN4924 before collecting where indicated.

Assay [3] addresses T3, StrepII-FLAG-tagged FBXO38 mutant C206R (SF-FBXO38 C206R) (human) (UniProt Q6PIJ6).
T3 sequence: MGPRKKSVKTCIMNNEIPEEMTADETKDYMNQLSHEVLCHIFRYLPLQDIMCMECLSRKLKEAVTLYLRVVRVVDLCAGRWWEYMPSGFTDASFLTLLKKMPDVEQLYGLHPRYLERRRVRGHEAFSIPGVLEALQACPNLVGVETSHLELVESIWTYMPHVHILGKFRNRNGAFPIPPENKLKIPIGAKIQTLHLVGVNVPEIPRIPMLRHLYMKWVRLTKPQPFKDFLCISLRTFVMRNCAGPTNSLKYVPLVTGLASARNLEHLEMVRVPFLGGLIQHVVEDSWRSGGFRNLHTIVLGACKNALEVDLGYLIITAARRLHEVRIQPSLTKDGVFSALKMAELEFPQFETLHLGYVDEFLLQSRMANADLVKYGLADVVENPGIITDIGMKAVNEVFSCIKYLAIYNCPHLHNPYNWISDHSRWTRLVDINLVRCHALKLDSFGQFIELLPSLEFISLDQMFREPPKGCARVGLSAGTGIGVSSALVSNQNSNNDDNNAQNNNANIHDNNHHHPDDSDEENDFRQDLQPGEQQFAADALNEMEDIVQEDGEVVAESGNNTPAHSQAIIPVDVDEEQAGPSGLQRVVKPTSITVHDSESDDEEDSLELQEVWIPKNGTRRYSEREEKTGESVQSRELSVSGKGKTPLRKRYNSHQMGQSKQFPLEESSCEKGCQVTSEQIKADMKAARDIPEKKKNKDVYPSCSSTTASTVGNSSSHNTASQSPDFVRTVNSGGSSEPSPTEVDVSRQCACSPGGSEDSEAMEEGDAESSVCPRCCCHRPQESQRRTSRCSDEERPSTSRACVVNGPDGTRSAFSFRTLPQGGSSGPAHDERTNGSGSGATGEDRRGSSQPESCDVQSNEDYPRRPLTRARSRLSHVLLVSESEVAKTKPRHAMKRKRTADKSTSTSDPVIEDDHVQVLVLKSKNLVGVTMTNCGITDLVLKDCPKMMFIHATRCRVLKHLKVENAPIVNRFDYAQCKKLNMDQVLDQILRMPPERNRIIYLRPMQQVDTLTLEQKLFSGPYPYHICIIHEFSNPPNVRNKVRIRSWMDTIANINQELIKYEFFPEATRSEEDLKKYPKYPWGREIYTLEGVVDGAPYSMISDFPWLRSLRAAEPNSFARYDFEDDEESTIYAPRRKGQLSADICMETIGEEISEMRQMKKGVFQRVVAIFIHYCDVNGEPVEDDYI
Described as above.

The target of assay [4] is T4, SF-tagged DEDD2, transfected in HEK293T cells (UniProt Q8WXF8).
T4 sequence: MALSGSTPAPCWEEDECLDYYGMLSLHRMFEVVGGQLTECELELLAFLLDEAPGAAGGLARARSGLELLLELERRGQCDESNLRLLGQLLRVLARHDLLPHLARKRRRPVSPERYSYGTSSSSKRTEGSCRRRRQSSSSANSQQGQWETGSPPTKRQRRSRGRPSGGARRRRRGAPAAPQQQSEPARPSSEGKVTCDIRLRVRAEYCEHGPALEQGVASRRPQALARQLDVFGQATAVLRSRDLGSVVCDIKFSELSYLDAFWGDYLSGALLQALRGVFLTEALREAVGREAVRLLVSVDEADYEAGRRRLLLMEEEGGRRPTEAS
The description is as above.

B1: centromere protein B (CENP-B), endogenous in HEK293T cells (protein, UniProt P07199 1-599)
chain: MGPKRRQLTFREKSRIIQEVEENPDLRKGEIARRFNIPPSTLSTILKNKRAILASERKYGVASTCRKTNKLSPYDKLEGLLIAWFQQIRAAGLPVKGIILKEKALRIAEELGMDDFTASNGWLDRFRRRHGVVSCSGVARARARNAAPRTPAAPASPAAVPSEGSGGSTTGWRAREEQPPSVAEGYASQDVFSATETSLWYDFLPDQAAGLCGGDGRPRQATQRLSVLLCANADGSEKLPPLVAGKSAKPRAGQAGLPCDYTANSKGGVTTQALAKYLKALDTRMAAESRRVLLLAGRLAAQSLDTSGLRHVQLAFFPPGTVHPLERGVVQQVKGHYRQAMLLKAMAALEGQDPSGLQLGLTEALHFVAAAWQAVEPSDIAACFREAGFGGGPNATITTSLKSEGEEEEEEEEEEEEEEGEGEEEEEEGEEEEEEGGEGEELGEEEEVEEEGDVDSDEEEEEDEESSSEGLEAEDWAQGVVEAGGSFGAYGAQEEAQCPTLHFLEGGEDSDSDSEEEDDEEEDDEDEDDDDDEEDGDEVPVPSFGEAMAYFAMVKRYLTSFPIDDRVQSHILHLEHDLVHVTRKNHARQAGVRGLGHQS
In the case of B1, the binding entry in assay [1] is recorded as “binds”; in assay [2], “binds”; in assay [3], “no binding”; in assay [4], “no binding”.
